# Measurements reported in patent publication US10799597B2, “Subcutaneous administration of antibody-drug conjugates for cancer therapy” (Immunomedics, Inc., priority 2017, dated 2020).
# What was measured:
# [1] = test system: Capan-1 pancreatic adenocarcinoma xenografts; test: Therapy of Capan-1 tumor xenografts in nude mice; assay type: in vivo, athymic nude mice; conditions: day 140; 0.2 mg/kg SN-38 twice weekly×4 weeks
# Procedure: FIG. 3C. […] Animals were treated twice weekly for 4 weeks as indicated by the arrows. Capan-1 mice (N=10) were treated with 0.2 mg/kg ADC and tumors measured weekly.
# FIG. 4C. […] Capan-1 (N=10) were treated twice weekly for 4 weeks with the agents indicated.
# [2] = test system: SK-MES-1 human squamous cell lung tumors; test: Therapy of SK-MES-1 tumor xenografts in nude mice; conditions: hA20 ADC equal dose; irinotecan at MTD (q2dx5)
molecule,measurement,setting,value
"hA20-CL2A-SN-38: nontargeting anti-CD20 control ADC (conjugate, chains of the INN, looked up, CL2A-SN-38 payload) heavy: QVQLQQSGAEVKKPGSSVKVSCKASGYTFTSYNMHWVKQAPGQGLEWIGAIYPGMGDTSYNQKFKGKATLTADESTNTAYMELSSLRSEDTAFYYCARSTYYGGDWYFDVWGQGTTVTVSSASTKGPSVFPLAPSSKSTSGGTAALGCLVKDYFPEPVTVSWNSGALTSGVHTFPAVLQSSGLYSLSSVVTVPSSSLGTQTYICNVNHKPSNTKVDKRV[sequence of human IgG1 Fc omitted] light: DIQLTQSPSSLSASVGDRVTMTCRASSSVSYIHWFQQKPGKAPKPWIYATSNLASGVPVRFSGSGSGTDYTFTISSLQPEDIATYYCQQWTSNPPTFGGGTKLEIKRTVAAPSVFIFPPSDEQLKSGTASVVCLLNNFYPREAKVQWKVDNALQSGNSQESVTEQDSKDSTYSLSSTLTLSKADYEKHKVYACEVTHQGLSSPVTKSFNRGEC",mice tumor-free at the end of the study,[1],20%
same,antitumor effect relative to the specific conjugate,[2],provided the same antitumor effects as the specific hRS7-SN-38 conjugate
